The RNAGym collection of RNA variant scans (doi:10.1073/pnas.2313332121)
Variants at the floor of the assay are shown more often than the library holds them.

B1: TPR 5TU (parent)
chain: GGAUCUUCUCGAUCUAACAAAAAAGACAAAUCUGCCACAAAGCUUGAGAGCAUCUUCGGAUGCAGAGGCGGCAGCCUUCGGUGGCGCGAUAGCGCCAACGUUCUCAACUAUGACACGCAAAACGCGUGCUCCGUUGAAUGGAGUUUAUCAUG

Variants of: B1
Assay: polymerase ribozyme fitness, log enrichment relative to wild type (log ratio); higher = more active; in vitro selection for triplet polymerase activity
In short: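 Mutant libraries were PCR-built and transcribed for each subunit of a heterodimeric triplet polymerase ribozyme and selected for one round in triplicate at −7 °C, frozen, before gel excision of extended constructs and streptavidin-bead capture. Input and output libraries were Illumina-sequenced, keeping genotypes with ≥10 input reads and ≥1 read per output. Fitness is a logarithmic ratio of genotype to wild-type enrichment, in base 2, using inverse-variance-weighted replicate averages.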

Variant	polymerase ribozyme fitness (log ratio)
A3U A16U A49U C103A C114A U146A	≤ -4.2
A3U U6G A24U A29U U55A G74U G88A C93U C103G U134A	≤ -4.2
C5A G83A C118G U127G	≤ -4.2
U4C A37U G50U C95U G128A	≤ -4.2
U4C C10G C27A A47C U56C U78A G92U A115U G140U	≤ -4.2
U4G A37C C87U A122G C125A	-3.07
C5A U45C A64U C75A G141C U145C A150U	≤ -4.2
A3G G50C A120G C129A	≤ -4.2
A3G C63U A66C A73U C85A A91C U109G	≤ -4.2
C5A U7C A22U C103G	-2.38
A3U C35A U77G G83A A119G	≤ -4.2
U4A G48C C75A G81C A91G G92C C123A U145G	≤ -4.2
U4G U13G A20U A24G C36A U55A G92A A110U	≤ -4.2
A3U A47U A60G A64G C75U G92U C114U C118G	≤ -4.2
C5A C8G A26U C38U U44A A47C C118A A137C	≤ -4.2
U4A U56A A91U C116G U130G	≤ -4.2
U4C G11A C57A C96U G124A A150C	≤ -4.2
A3G U6G U90G C103U G141C	≤ -4.2
A3G U13C A98U A107U	-4
U4C A16G A52U G59C G68A A91G G126A U130A	≤ -4.2
A3U U4A C5U C14G A16U A30C G83U G100A	≤ -4.2
U4C A40G G92C G136U U146G	≤ -4.2
U4G C14G C18A U45A A47C A49C G81A G83A G92C A138G A142U	≤ -4.2
A3U A22G U45C A49G G80C G92C G126U	≤ -4.2

Variant	polymerase ribozyme fitness (log ratio)
A3U A28U G50A A89G C95A A97C U139C A142U	≤ -4.2
U4G A29G G92U G100U	≤ -4.2
C5A G42C C93G U146G	≤ -4.2
A3U C10U U44A A66G C85A G136U	≤ -4.2
A3U G11U C14G C51U A52C C87G C96U G112C	≤ -4.2
A3G A23C C75A G88A C99G C108U G143C	≤ -4.2
A3G A29G U82A	≤ -4.2
U4A A16C C76G A115G G143A	≤ -4.2
U4C G25A A41C U44A A64U C85A C87G C103G U145A	≤ -4.2
A3U C54U	-1.57
A3G U56C C87A G92C	-2.12
C5A C8G G88A A91U C116A A119G	≤ -4.2
A3U U9A C38U C54U G68U G94A	≤ -4.2
A3G A23U G50C C51U C85G C116U	≤ -4.2
A3U A12C A23C A29G U55G A73U C93G	≤ -4.2
U4C A12U C57G C85U A98G G128U	≤ -4.2
C5A A16U U53A C57G U90G C95A	≤ -4.2
A3G U31G G50A C95G C118G A138C U146A G152U	≤ -4.2
A3U C8U A91U C93U	≤ -4.2
U4G G48A G88C C123U U134G A137C	≤ -4.2
U4A U33A G48C C57U C85U A115G C129G G141U	≤ -4.2
A3U C8U C27A A28C C51A A52C C54A C93U C103G C108G A115C C118A U135A A142U	≤ -4.2
U4G A19U C43U C87U A98G	≤ -4.2
U4G C8G C14U A19C A49G C118G U146G	≤ -4.2

Variant	polymerase ribozyme fitness (log ratio)
A3G C14U G34A G48A C85A G126U G136A U144G	≤ -4.2
U4G C32A C51G G80A G83C	≤ -4.2
U4A A37U G94C A150G	-4.19
A3U A30C U31G C79U A115G	≤ -4.2
U4G U6G U45A A52G G59A C72U C85A C99U U134A U135C U145G	≤ -4.2
U4C A20G C85A A98C A115G	-2.8
U4C G81A C87U C99A A137C U144C	≤ -4.2
A3U U56C C87U A89G U101G	-2.52
A3U A37G C87U U130C G143A	≤ -4.2
U4C G48U A49C G68A C79G C105A	≤ -4.2
U4A A21G A26U U55C G81A G86C G143C	≤ -4.2
U4C C57A C95A C96U G141A	-3.87
A3G A47C C57G G92U C103G C114U C125U G141U	≤ -4.2
U4C A26U A52U C87A C95A U109A U145G U146G	≤ -4.2
A3U G71A C93G	≤ -4.2
U4G C38A A47C C85G	-3.7
U4A U6A C36U C57G G68U C79G A91C	≤ -4.2
U4G U31A C93A A107U A121U C149U A150G	≤ -4.2
U4A A21G C76A C85A G86U C95A	≤ -4.2
U4G A22U C38U G84A A138G	≤ -4.2
A3U C8A C18U A47C A49U C93U U102G A107G G133U	≤ -4.2
U4G A60C G83A A142G	≤ -4.2
C5A U7C C32A C35U U56A C96A A121G	≤ -4.2
A3U A37U G65C C85U C87G	≤ -4.2

Variant	polymerase ribozyme fitness (log ratio)
U4C A24U C32G A37G C57G G84A U90C A98G	≤ -4.2
C5G A12G A21G A22G C75G	≤ -4.2
U4C A16U C38A A52G C76U C85A C96A C125U	≤ -4.2
U4A A39C U53A C96U C108U A120U C125U	≤ -4.2
A3G A23G A64G C79G A91U G124U G133U	≤ -4.2
A3U A49U U55C A91U	≤ -4.2
A3U C36U	-2.21
A3U U31C C57U G86A	-1.99
U4A C14A U15G A28U C35U G46U C95U	≤ -4.2
A3G A12U A29C G46C U61G A91C	≤ -4.2
A3U C54G C85G	≤ -4.2
A3U A26G A30U G59A G74C C95U	≤ -4.2
A3G U55A A66U C76U G81U C85U A119U A137G U144G	≤ -4.2
C5A U6A A16C A21G U44G G59U U109C G117U	≤ -4.2
A3U C10A A47G U77A C87A G141C	≤ -4.2
A3U A28U C93U	≤ -4.2
A3U U45A A91C G124A U127A A147C	≤ -4.2
C5G A12C C87A U101G G124A A142C	≤ -4.2
U4C A23G U53G U56A G92C C95A	≤ -4.2
A3G A89G C93U A137C A138U G140A	≤ -4.2
A3U C10U U61A G65A A66C	≤ -4.2
U4A C18U A64C G68A C79G	≤ -4.2
A3G A17U C85A A106G A107U C118G U134A A142G C149U	≤ -4.2
A3G A19U A40C A60C C85G	≤ -4.2

Variant	polymerase ribozyme fitness (log ratio)
A3G A17G U31A G42A G71C U102C U111G	≤ -4.2
A3U A28C A47C C85U C118U	≤ -4.2
A3G C10G A41G C76A U145A	≤ -4.2
U4C A16C A19U G86U C96A C108A	≤ -4.2
A3U C8G A12U U31G U56G G86C G88A C114U	≤ -4.2
U4A A19C A52U A60U G62C G80U G88A C103U C123U G133U A137U	≤ -4.2
A3U C8U C96U	-1.89
U4G C93U	-0.624
A3U A29C U55A C95U C131U	≤ -4.2
U4G A91U	≤ -4.2
A3U G11A A21G G84U C131A U134C	≤ -4.2
C5A A17G C79G C96U U109G	≤ -4.2
A3U U82A C87A	≤ -4.2
A3U A40G A60C U61A G81C U90G G94A C123A U139A	≤ -4.2
U4G A19C G58U C69U C96A	-0.414
A3G C93U	-1.78
U4A C35A A37G U56A C75G C108G G140U	≤ -4.2
A3U U55A G68A G86U U90A A97U U101A A137C U145C	≤ -4.2
U4G A20C C85U	-0.147
U4G A20U U31G G34A C75G G84A A91G	≤ -4.2
U4C C35G C96U	≤ -4.2
U4A A21C G80A	-0.338
A3G U6G A37C A47C G71A C95U C105A U135A G140U	≤ -4.2
C5A A30U A52U C76A C95U A119C G136A U148G	≤ -4.2

Variant	polymerase ribozyme fitness (log ratio)
A3U A41G C51A C99A U111C	≤ -4.2
A3U G83A C118G A142C	-3.66
U4A A49G C87A	≤ -4.2
A3G G48U C79G A89C U111G	≤ -4.2
U4A A37C U61A A66G G133U U144A	≤ -4.2
U4G C8G G34U C85U G94A C108G G124C A138U	≤ -4.2
C5A C76U	-0.144
U4C G100A C116G A138C	≤ -4.2
C5A C27U	-1.46
U4C G59C C69U C93G G100A G124U	≤ -4.2
U4G C51U G67U G92U G128C	≤ -4.2
A3G U7G C27U G68C C99G C125U U127G	≤ -4.2
U4C A22C G48U C93G A122C	-3.98
U4A A29U G86C G141C	≤ -4.2
A3U U53A C93A U101C C125U C132U G140U A147C	≤ -4.2
U4C C85G A107U	≤ -4.2
U4A G83C G94U U148G	≤ -4.2
C5A C85U C93U	-1.66
A3G C10G A19U U55A C87A C93U G100C U104G A138U U146C	≤ -4.2
C5A A49C A91U G94U C96U A120G G133C	≤ -4.2
A3G A21U A66U G84U C87A	≤ -4.2
A3U G42A C85G U102C C103A	≤ -4.2
U4G A106G	-0.112
U4A C8A U56A A122G G141A	-4.11

Variant	polymerase ribozyme fitness (log ratio)
A3G A20C A23G U135A A150C	≤ -4.2
U4G A89U A91C C96G	≤ -4.2
A3U U31G C36U C96A	-2.99
A3G C76A C85U A122U G133U A137G G140C	≤ -4.2
A3U U4A A16U U31A C85U G88A C125U U146G	≤ -4.2
C5A U148G	-3.62
A3G C96U C105A A107U G133A U144A U145C	≤ -4.2
U4G C10U C32U U53A U55G G94U	≤ -4.2
A3U A47C G50C G86C A137C G143U	≤ -4.2
U4A A22U C63U G67A C75A G94A C96U	≤ -4.2
A3U U6G C32G G42A A52C U77A G83A C125G G141C G143A	≤ -4.2
A3U C8G C14G A40C G62C U78C C103A U127C G133U	≤ -4.2
U4G U9G A30C A40C U45A A47C G92U G143A	≤ -4.2
A3U C18U G42A A91G A107U	≤ -4.2
U4C A19C U31A C38U U82G C93A U134G	≤ -4.2
A3G U15A U90C G94U G124A C125U	≤ -4.2
A3U A60G A64C G70A C93U A113U C116G U139G	≤ -4.2
U4G A24U A30C C72G C93A C103G C123U	≤ -4.2
C5A A28C C32U A60C G74C C85U A98G	≤ -4.2
A3U A37U G42C C57U C95U G136U	≤ -4.2
U4A A28U C93U A97U C105G G126A G136U	≤ -4.2
U4G C5A U55G	-0.269
C5A G48C	-0.334
